≈ marks a conversion by molar mass, not a printed value. Where a SMILES comes first, the peptide text is derived from it.

The test system of the assay is P. aeruginosa ATCC 27853. Particulars: Table 7B; dose to kill 90% of input cells in 2 h at 37° C. in 1/100 strength HBSS; about 10^7 CFU/ml.

As for `CC[C@H](C)[C@H](NC(=O)[C@H](Cc1c[nH]c2ccccc12)NC(=O)[C@@H]1CCCN1C(=O)[C@H](CC(C)C)NC(=O)[C@H](Cc1ccccc1)NC(=O)[C@H](CO)NC(=O)[C@H](CO)NC(=O)[C@@H](NC(=O)[C@H](Cc1ccccc1)NC(=O)[C@H](CCCNC(=N)N)NC(=O)[C@@H](NC(=O)[C@H](Cc1ccccc1)NC(=O)[C@@H](NC(=O)[C@H](CCC(=O)O)NC(=O)[C@@H]1CCCN1C(=O)[C@@H]1CCCN1C(=O)[C@@H](NC(=O)CNC(=O)[C@H](CO)NC(=O)[C@H](CO)NC(=O)[C@H](CCCCN)NC(=O)CN)C(C)C)C(C)C)[C@@H](C)O)C(C)C)C(=O)N[C@@H](CCCNC(=N)N)C(=O)N[C@H](C(=O)N[C@H](C(=O)N[C@@H](CCSC)C(=O)N[C@@H](CCCNC(=N)N)C(=O)O)[C@@H](C)O)[C@@H](C)O` [CG 198-223] (H-GKSSGVPPEVFTRFVSSFLPWIRTTMR-OH; N-terminus and C-terminus assumed), the ED90 worked out at 115 µg/mL (≈ 37.3 µM).

The record behind these values is US5798336A, “Antimicrobial peptides” (priority 1995, dated 1998).
